Test results from ChEMBL document CHEMBL4888484, “Replenishing the malaria drug discovery pipeline: Screening and hit evaluation of the MMV Hit Generation Library 1 (HGL1) against asexual blood stage Plasmodium falciparum ,using a nano luciferase reporter read-out” (2022).
Among all 150,000 compounds or so, about 540 (0.36%) showed an effect of 50% or more. The list shows a part of the results.

Test system: Plasmodium falciparum
Test: Primary screen in NF54 nanoGlo assay, in single point, at 2uM, 72h; a lower Z score goes with more inhibition
Format: functional, Erythrocyte
Settings: timepoint 72 hour

Going from `C[C@H](NC(=O)NCc1c(C2CC2)cnn1C)c1ncc(Br)cn1` to `Cc1ccccc1C1CC(C)N(CC(=O)NCc2ccccn2)C1` (stereo unspecified), the “% Inhibition” value rises from 3% to 4%.

First: COc1ccccc1NC(=O)N1CCCCC[C@H]1c1ccc(C)s1
Second: COc1cc(-c2noc(-c3ccccc3)n2)ccc1OCC(=O)NC1CCCCC1
The “% Inhibition” value of the first is higher: 3% for the first, -9% for the second.

First: CC(C)Cn1c(=O)c2sccc2n(CC(=O)N2CCCC[C@@H]2C)c1=O
Second: Cc1nc2ccc(C(=O)N3CCC[C@H](OC(C)C)C3)cc2n1C
The “% Inhibition” value of the first is lower: -13% for the first, 0% for the second.

First: Cn1cc(C(=O)Nc2nc3ccccc3n2CC2CC2)c(C2CC2)n1
Second: O=C(CN1C(=O)[C@@H]2CCCN2C(=O)c2ccccc21)NCC1CCCO1 (stereo partly specified)
The “% Inhibition” value of the first is higher: 0% for the first, -8% for the second.

Going from `Cc1c(C(=O)N2CCCCC2)c(S(=O)(=O)N2CCN(c3ccc(Cl)cc3)CC2)c(C)n1C` to `CN1C(=O)C(C)(C)c2cc(S(=O)(=O)N3CCC(C(=O)N4CCCCCC4)CC3)ccc21`, the “% Inhibition” value rises from -14% to -7%.

First: Cc1nnc(CN(C)C(=O)Nc2ccn(CCN3CCOCC3)n2)s1
Second: CCc1nnc(N2CCN(C)[C@@]3(CCNC(=O)CC3)C2)s1
The “% Inhibition” value of the first is higher: 0% for the first, -13% for the second.

First: CCc1nnc(Cn2cc([C@H](O)c3ccccc3)cn2)o1
Second: CC(C)(CN)c1nc(Cn2cnc3ccccc32)no1
The “% Inhibition” value of the first is lower: -15% for the first, -13% for the second.

Compared with `CC1CC(NC(=O)N(C)CC(C)(C)O)C1` (stereo unspecified), `CC(C)[C@H](CCN(C)C(=O)c1cccc2c1OCC2)NC(=O)OC(C)(C)C` is higher in “% Inhibition” value: -17% for the first, -7% for the second.

First: Cc1ncsc1CN1CCCC(C(C)O)C1 (stereo unspecified)
Second: COC(=O)N1CCC(CNC(=O)c2cc(C)cs2)CC1
The “% Inhibition” value of the first is higher: 5% for the first, -6% for the second.

Compared with `Cc1nc2cc(NC(=O)C3CC4C=CC3C4)ccc2o1` (stereo unspecified), `CCCS(=O)(=O)[C@@H](C)C(=O)Nc1cccc(-c2nccc(C)n2)c1` is higher in “% Inhibition” value: -15% for the first, -3% for the second.

Compared with `NC(=O)c1ccc(NC(=O)CN2C(=O)NC3(CCCCCCC3)C2=O)cc1`, `CC(=O)NC1(C(=O)N2CCN(c3ccncc3Cl)CC2)CCCCC1` is lower in “% Inhibition” value: -3% for the first, -4% for the second.

Compared with `COc1ccc([C@H]2C(=O)N(C3CCCCCC3)CC(=O)N2Cc2ccc3c(c2)OCO3)cc1`, `CCCc1cc(C(=O)N2CCC([C@]3(CCc4ccccc4)NC(=O)N(CCN(C)C)C3=O)CC2)no1` is lower in “% Inhibition” value: -2% for the first, -9% for the second.

Compared with `CCC1[C@@H](C)C(Nc2ccccc2)c2ccccc2N1C(=O)c1ccc(C(C)(C)C)cc1` (stereo partly specified), `CCn1c(-c2cc(NC(=O)CCc3ccccc3)[nH]n2)c(C)c2ccccc21` is lower in “% Inhibition” value: 20% for the first, -1% for the second.

Compared with `CC1(C)CC(NC(=O)C2CC(C(c3ccccc3)c3ccccc3)=NO2)CCO1` (stereo unspecified), `CCC1(O)CCC(NC(=O)N2CCc3ccccc3C(C)(C)C2)CC1` (stereo unspecified) is higher in “% Inhibition” value: -13% for the first, 10% for the second.

First: CCc1c(C)nc2nc(-c3ccco3)nn2c1Nc1ccc(Cl)cc1
Second: CC(C)Cn1ccc2c(NC(=O)c3nn(C)c(=O)c4ccccc34)cccc21
The “% Inhibition” value of the first is higher: -4% for the first, -8% for the second.

First: CC(=O)N1CCN(C(=O)CN2C[C@@H](c3ccccc3Cl)OCC2(C)C)CC1
Second: C[C@H](NC(=O)N1CCN(S(=O)(=O)c2ccccc2Cl)CC1)C1CC1
The “% Inhibition” value of the first is lower: -7% for the first, -4% for the second.

Compared with `O=C(NC[C@@H]1COc2ccccc2C1)N1CCCC1`, `Cc1ccc(CN2CCCN(S(=O)(=O)N3CCOCC3)CC2)s1` is higher in “% Inhibition” value: -11% for the first, -9% for the second.

First: CCN(CC)c1nc(C)nc2c1sc(=S)n2-c1ccccc1
Second: Cc1nnc(-c2ccccc2-c2cc(F)cc3c2O[C@@H](CN)C3)s1
The “% Inhibition” value of the first is higher: -8% for the first, -11% for the second.

First: COC(=O)C[C@@H](C(=O)OC)c1ccno1
Second: Cn1nccc1S(=O)(=O)NCC(F)F
The “% Inhibition” value of the first is higher: -2% for the first, -5% for the second.

First: Cc1c(Cl)c(-c2nc(C(C)(C)C3=CCCCC3)no2)nn1C
Second: Cc1cc(COc2nc(C)c(C#N)cc2Br)no1
The “% Inhibition” value of the first is higher: 0% for the first, -3% for the second.

Going from `Cc1cc(C)c(Cn2cncn2)cc1CN1CCN2C(=O)CNC(=O)[C@@H]2C1` to `O=C1N[C@@H](c2cncs2)Nc2ncccc21`, the “% Inhibition” value falls from 0% to -7%.

For `O=C(NCCc1noc(C2CCC2)n1)[C@H]1CC12CCCCC2`, the “% Inhibition” value was -9%.

First: C[C@H](NC(=O)NCc1c(C2CC2)cnn1C)c1ncc(Br)cn1
Second: Cc1ccccc1C1CC(C)N(CC(=O)NCc2ccccn2)C1 (stereo unspecified)
The Z score of the first is higher: -0.5 for the first, -0.53 for the second.

Going from `COc1ccccc1NC(=O)N1CCCCC[C@H]1c1ccc(C)s1` to `COc1cc(-c2noc(-c3ccccc3)n2)ccc1OCC(=O)NC1CCCCC1`, the Z score rises from -0.49 to 1.68.

Going from `CC(C)Cn1c(=O)c2sccc2n(CC(=O)N2CCCC[C@@H]2C)c1=O` to `Cc1nc2ccc(C(=O)N3CCC[C@H](OC(C)C)C3)cc2n1C`, the Z score falls from 1.7 to 0.06.

Going from `Cn1cc(C(=O)Nc2nc3ccccc3n2CC2CC2)c(C2CC2)n1` to `O=C(CN1C(=O)[C@@H]2CCCN2C(=O)c2ccccc21)NCC1CCCO1` (stereo partly specified), the Z score rises from 0.04 to 0.91.

Compared with `Cc1c(C(=O)N2CCCCC2)c(S(=O)(=O)N2CCN(c3ccc(Cl)cc3)CC2)c(C)n1C`, `CN1C(=O)C(C)(C)c2cc(S(=O)(=O)N3CCC(C(=O)N4CCCCCC4)CC3)ccc21` is lower in Z score: 2.7 for the first, 1.35 for the second.

Compared with `Cc1nnc(CN(C)C(=O)Nc2ccn(CCN3CCOCC3)n2)s1`, `CCc1nnc(N2CCN(C)[C@@]3(CCNC(=O)CC3)C2)s1` is higher in Z score: 0.08 for the first, 1.43 for the second.

First: CCc1nnc(Cn2cc([C@H](O)c3ccccc3)cn2)o1
Second: CC(C)(CN)c1nc(Cn2cnc3ccccc32)no1
The Z score of the first is lower: 1.67 for the first, 1.86 for the second.

Compared with `CC1CC(NC(=O)N(C)CC(C)(C)O)C1` (stereo unspecified), `CC(C)[C@H](CCN(C)C(=O)c1cccc2c1OCC2)NC(=O)OC(C)(C)C` is lower in Z score: 1.7 for the first, 1.05 for the second.

Going from `Cc1ncsc1CN1CCCC(C(C)O)C1` (stereo unspecified) to `COC(=O)N1CCC(CNC(=O)c2cc(C)cs2)CC1`, the Z score rises from -0.68 to 0.92.

Compared with `Cc1nc2cc(NC(=O)C3CC4C=CC3C4)ccc2o1` (stereo unspecified), `CCCS(=O)(=O)[C@@H](C)C(=O)Nc1cccc(-c2nccc(C)n2)c1` is lower in Z score: 2.12 for the first, 0.46 for the second.

`NC(=O)c1ccc(NC(=O)CN2C(=O)NC3(CCCCCCC3)C2=O)cc1` and `CC(=O)NC1(C(=O)N2CCN(c3ccncc3Cl)CC2)CCCCC1` are the same in Z score: 0.42 for the first, 0.42 for the second.

First: COc1ccc([C@H]2C(=O)N(C3CCCCCC3)CC(=O)N2Cc2ccc3c(c2)OCO3)cc1
Second: CCCc1cc(C(=O)N2CCC([C@]3(CCc4ccccc4)NC(=O)N(CCN(C)C)C3=O)CC2)no1
The Z score of the first is lower: 0.39 for the first, 1.8 for the second.

Going from `CCC1[C@@H](C)C(Nc2ccccc2)c2ccccc2N1C(=O)c1ccc(C(C)(C)C)cc1` (stereo partly specified) to `CCn1c(-c2cc(NC(=O)CCc3ccccc3)[nH]n2)c(C)c2ccccc21`, the Z score rises from -2.38 to 0.07.

First: CC1(C)CC(NC(=O)C2CC(C(c3ccccc3)c3ccccc3)=NO2)CCO1 (stereo unspecified)
Second: CCC1(O)CCC(NC(=O)N2CCc3ccccc3C(C)(C)C2)CC1 (stereo unspecified)
The Z score of the first is higher: 1.73 for the first, -1.24 for the second.

Going from `CCc1c(C)nc2nc(-c3ccco3)nn2c1Nc1ccc(Cl)cc1` to `CC(C)Cn1ccc2c(NC(=O)c3nn(C)c(=O)c4ccccc34)cccc21`, the Z score rises from 0.55 to 1.01.

Going from `CC(=O)N1CCN(C(=O)CN2C[C@@H](c3ccccc3Cl)OCC2(C)C)CC1` to `C[C@H](NC(=O)N1CCN(S(=O)(=O)c2ccccc2Cl)CC1)C1CC1`, the Z score falls from 1.34 to 0.44.

First: O=C(NC[C@@H]1COc2ccccc2C1)N1CCCC1
Second: Cc1ccc(CN2CCCN(S(=O)(=O)N3CCOCC3)CC2)s1
The Z score of the first is higher: 1.9 for the first, 1.76 for the second.

First: CCN(CC)c1nc(C)nc2c1sc(=S)n2-c1ccccc1
Second: Cc1nnc(-c2ccccc2-c2cc(F)cc3c2O[C@@H](CN)C3)s1
The Z score of the first is lower: 1.09 for the first, 1.1 for the second.

First: COC(=O)C[C@@H](C(=O)OC)c1ccno1
Second: Cn1nccc1S(=O)(=O)NCC(F)F
The Z score of the first is lower: 0.36 for the first, 0.64 for the second.

First: Cc1c(Cl)c(-c2nc(C(C)(C)C3=CCCCC3)no2)nn1C
Second: Cc1cc(COc2nc(C)c(C#N)cc2Br)no1
The Z score of the first is lower: -0.08 for the first, 0.52 for the second.

Compared with `Cc1cc(C)c(Cn2cncn2)cc1CN1CCN2C(=O)CNC(=O)[C@@H]2C1`, `O=C1N[C@@H](c2cncs2)Nc2ncccc21` is higher in Z score: 0.04 for the first, 0.89 for the second.

Compound `O=C(NCCc1noc(C2CCC2)n1)[C@H]1CC12CCCCC2` has a Z score of 1.88.
